# Reference: PubChem BioAssay AID1347073 (National Center for Advancing Translational Sciences (NCATS), 2019)
# Among all 45,000 compounds or so, about 200 (0.44%) were called active. Inconclusive results (about 7%) are left out. Calls come from the whole dose curve; as a rule, active = well fitted activation curve with a large enough effect; inconclusive = small, poorly fitted or top-dose-only effect; inactive = no such curve, though single readings can be large or run the other way. The list shows a part of the results.
# Experiment: qHTS of TDP-43 Inhibitors: NCGC Sytravon Library Screen; note: 0% is about no effect; nearly all actives have a fitted effect of over 55% in size
# Conditions: yeast TDP-43 toxicity rescue, BacTiter-Glo growth, 24 h; series mostly up to 46.1 µM; growth rescue (activation): at the top concentration
# Summary of the method: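 TDP-43-expressing yeast, pregrown in raffinose, seeded at OD600 0.02 in galactose medium with compound for 24 hr at 30 deg C. Growth read by BacTiter-Glo luminescence, so rescue of toxicity appears as activation.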
row,Structure (SMILES),growth rescue (activation)
1,COCCn1c(=O)[nH]c2cc(C(=O)N3CCN(c4cccc(C)c4C)CC3)ccc2c1=O,inactive: 5.83%
2,CCOC(=O)C1(Cc2cccc(OC)c2)CCN(Cc2ccc3c(c2)OCCO3)CC1,inactive: 4.68%
3,O=C(c1cccs1)N1CCN(Cc2ccncc2)CC1,inactive: -10.9%
4,Nc1ccnn1Cc1ccc(Br)s1,inactive: 9.54%
5,Cc1ccc(C2C(C#N)=C(N)Oc3n[nH]c(-c4cccs4)c32)cc1 (configuration not stated),inactive: 20.3%
6,CCN(CC)c1ccc(/C=N/NC(=O)CNC(=O)/C=C/c2ccco2)cc1,inactive: -10.3%
7,Cc1cc(C(=O)NCC(=O)OCC(=O)N(C2CCCCC2)C2CCCCC2)ccc1[N+](=O)[O-],inactive: 10.1%
8,Cn1c(=O)c2c(nc(NCc3cccnc3)n2Cc2ccc(Cl)cc2)n(C)c1=O,inactive: 0.844%
9,COc1ccc(/C=C/c2n[nH]c(=O)c(C#N)c2C)cc1,inactive: 6.29%
10,CN(C)S(=O)(=O)c1ccc(NC(=S)NC(=O)c2cccs2)cc1,inactive: -6.89%
11,C[C@]12CC[C@H](O)CC1=C[C@H](O)C1C2CC[C@@]2(C)C1CC[C@@]2(O)C#Cc1ccc(CN)cc1 (some centres not stated),inactive: 2.44%
12,Cc1ccccc1CSc1nnc(-c2ccccc2)c(=O)[nH]1,inactive: -8.53%
13,O=C(CONS(=O)(=O)c1ccc(Cl)cc1)NCCNc1ncc(C(F)(F)F)cc1Cl,inactive: 3.62%
14,Cc1cc(N2CCN(C)CC2)nc(=S)[nH]1,inactive: 8.64%
15,CCN(C(=O)CSc1nnc(-c2c[nH]c3ccccc23)o1)C1CCS(=O)(=O)C1 (configuration not stated),inactive: -3.26%
16,CN(CC(=O)Nc1ccccc1N1CCOCC1)CC(=O)Nc1ccc(F)c(F)c1F,inactive: -9.98%
17,O=C(CN1C(=O)N/C(=C\c2ccccc2OCc2ccc(C(=O)O)cc2)C1=O)Nc1ccccc1F,inactive: -17.8%
18,O=C(CCCc1nc(-c2ccccc2)no1)NC1CCCCC1,inactive: -3.16%
19,COC(=O)Nc1nnc(/C=C/c2ccccc2)s1,inactive: -28.1%
20,O=C(CCc1ccccc1)Nc1ccc(N2CCCCC2)cc1,inactive: 4.02%
21,COc1ccccc1/C=C(\NC(=O)c1ccccc1)C(=O)NCc1ccco1,inactive: 17.1%
22,Cc1ccc(S(=O)(=O)N2CCCCC2)cc1NC(=O)COc1ccccc1F,inactive: 0.961%

row,Structure (SMILES),growth rescue (activation)
1,Cc1ccc(C2=NNC3(CCOC(C)(C)C3)S2)cc1 (configuration not stated),inactive: 14%
2,COc1cc(-c2nc3ccccn3c2/N=C/c2ccc(F)cc2)ccc1O,inactive: -2.56%
3,CCCCOC(=O)C1C2C=C[C@]3(CN(CCCOC)C(=O)[C@H]13)O2 (some centres not stated),inactive: 20.6%
4,Cc1ccc(-n2cnc3sc(C)c(C)c3c2=O)cc1,inactive: 3.06%
5,N#Cc1c(-c2ccccc2)cc2nc3ccccc3n2c1N,inactive: -12.7%
6,CN(C)S(=O)(=O)c1cccc(NC(=O)COC(=O)/C=C/c2ccc3c(c2)OCO3)c1,inactive: -7.68%
7,NS(=O)(=O)c1ccc(O)c(NC(=O)c2ccc([N+](=O)[O-])cc2)c1,inactive: 11.5%
8,COc1ccc(N2CC(NC(=O)COc3ccc(F)cc3)CC2=O)cc1OC (configuration not stated),inactive: 5.43%
9,O=C(CSCc1ccc(Cl)c(Cl)c1)Nc1c[nH]c(=O)[nH]c1=O,inactive: 6.48%
10,c1cn(CCCNc2ncnc3sc4c(c23)CCC4)cn1,inactive: 13.6%
11,COc1ccc(-c2cc(C(=O)Nc3c(C)n(C)n(-c4ccccc4)c3=O)c3ccccc3n2)cc1,inactive: 3.55%
12,CCCCC(=O)Nc1cccc(NC(=S)NC(=O)Cc2ccccc2)c1,inactive: 8.41%
13,Cc1ccsc1/C=N/NC(=O)c1ccc2nc[nH]c2c1,inactive: 12.9%
14,Cc1onc(-c2ccccc2)c1C(=O)Nc1nnc(CC(C)(C)C)s1,inactive: 7.05%
15,Cc1ccc(S(=O)(=O)c2nc(Cc3ccccc3)oc2N2CCOCC2)cc1,inactive: -0.483%
16,CC(=O)Nc1ccc(C(=O)N(C)c2ccccc2)cc1,inactive: 1.49%
17,COc1ccc(C(=O)Nn2c(SCc3ccc([N+](=O)[O-])cc3)nc3ccccc3c2=O)cc1,inactive: 13.4%
18,COc1cc(C(=O)/C=C/c2cccnc2)ccc1O,inactive: -8.25%
19,Cc1ccc(Cl)cc1N1CCN(C(=O)c2ccc(NS(=O)(=O)c3c(C)noc3C)cc2)CC1,inactive: 12.2%
20,CN1CCN(/N=C/c2ccc(Br)cc2)CC1,inactive: -7.61%
21,COc1ccc(C(=O)C2CCCN(C(=O)c3ccoc3C)C2)cc1F (configuration not stated),inactive: 16.7%
22,CCOC(=O)c1sc(NC(=O)CSc2nnnn2-c2ccc(C)cc2C)nc1C,inactive: 7.47%

row,Structure (SMILES),growth rescue (activation)
1,CCOc1ccc(-c2cc(CCCC(=O)NCCC(C)C)no2)cc1,inactive: 26%
2,N#CC1=C(N)OC2=C(C(=O)CC(c3ccccc3)C2)C1c1cccnc1 (configuration not stated),inactive: 10.7%
3,CC(=O)Nc1ccc2c3c(cccc13)C(=O)N(c1ccccc1)C2=O,inactive: 10.4%
4,CC(=O)N1CCN(CC(=O)Nc2cccc(S(=O)(=O)N3CCCCC3)c2)CC1,inactive: 7.72%
5,N#CCCN1CCN(S(=O)(=O)c2ccc3c(c2)OCCCO3)CC1,inactive: -0.29%
6,COc1ccc(C)cc1NC(=O)C(c1ccccc1)N1CCN(CC(=O)N2CCOCC2)CC1 (configuration not stated),inactive: 20.2%
7,CCn1c(CN2CCN(C(c3ccccc3)c3ccccc3)CC2)nc2c1c(=O)n(C)c(=O)n2C,inactive: -8.57%
8,CN(C)c1cccc(C(=O)OCC(=O)NC(=O)NCc2ccccc2)c1,inactive: 8.6%
9,CCNC(=O)C1(C)CCCN(C(=O)c2sc(-c3ccccc3)nc2C)C1 (configuration not stated),inactive: 7.77%
10,CN(CC(=O)Nc1ccc(Cl)cc1F)C1=NS(=O)(=O)c2ccccc21,inactive: 4.09%
11,CC1(C(=O)NS(=O)(=O)c2ccc(Cl)cc2)CCN1C(=O)CCc1ccc(Cl)cc1Cl (configuration not stated),inactive: 15.2%
12,CCCS(=O)(=O)NC(=O)C1(C)CCCN(C(=O)COc2ccc(Cl)cc2Cl)C1 (configuration not stated),inactive: -7.48%
13,COc1ccccc1CNc1nc(NCc2ccccc2F)c2sccc2n1,inactive: 7.29%
14,Cn1cc(/C=C/c2cc[n+](C)cc2)c2cc(Cl)ccc21,inactive: -23.6%
15,Cc1ccc(S(=O)(=O)Nc2ccc(NC(=O)Nc3cccc(C(F)(F)F)c3)cc2)cc1,inactive: -8.73%
16,CN(C)c1ccc(C2C3=C(CCCC3=O)OC3=C2C(=O)CCC3)cc1,inactive: 5.32%
17,CC1(C(=O)NCC2CCOCC2)Cc2c(-c3cccc(C(N)=O)c3)ccnc2O1 (configuration not stated),inactive: -11.3%
18,Cc1nc2sc(C(=O)O)c(N)c2c2c1COC(C)(C)C2,inactive: 29.1%
19,O=C(O)CCC(=O)NNC(=O)COc1cccc(Cl)c1,inactive: -4.89%
20,NC(=O)NC(=O)CN1C(=O)NC(c2ccccc2)(c2ccccc2)C1=O,inactive: 3.59%
21,Cc1c(NC(=O)C(C)Oc2ccc(Br)cc2)c(=O)n(-c2ccccc2)n1C (configuration not stated),inactive: 3.51%
22,CSc1nsc(SC)c1C(=O)NCCNS(=O)(=O)c1ccc(C)cc1,inactive: -5.09%

row,Structure (SMILES),growth rescue (activation)
1,O=C(N/N=C/c1c[nH]c2ccccc12)C1COc2ccccc2O1 (configuration not stated),inactive: 18.4%
2,Cc1ccc(CNC(=O)/C=C/c2ccc(S(=O)(=O)N3CCOCC3)cc2)cc1,inactive: 11%
3,C=CCn1c(CNC(=O)c2ccco2)nnc1SCC(=O)c1ccc(F)cc1,inactive: 5.1%
4,CCc1c(C)c2cc(Cl)c(O)c(CN3CCCC3)c2oc1=O,inactive: 13%
5,CCN1CCN(C(=O)c2cc3cc(Cl)ccc3[nH]2)CC1,inactive: -3.51%
6,CCNC(=O)C1(C)CCN(Cc2ccc(C(F)(F)F)cc2)C1 (configuration not stated),inactive: 0.971%
7,CN(C)CCNc1c2c(nc3nnnn13)CCCC2,inactive: 8.07%
8,Cc1ccc(NC(=O)Cn2ccc(=O)[nH]c2=O)cc1,inactive: 4.41%
9,Cc1ccc(NC(=O)C2(C)CCN2CCc2ccccc2)cc1O (configuration not stated),inactive: 3.2%
10,COCCN1Cc2cccc(C(=O)Nc3ccc(C)cc3)c2C1=O,inactive: 27%
11,Cc1nc(SCC(=O)Nc2ccc3[nH]c(=O)[nH]c3c2)nc(C)c1C,inactive: -22.3%
12,CCOc1ccc(C(=O)CCC(=O)NNC(=O)CCN2CCN(c3ccccc3)CC2)cc1,inactive: 17.8%
13,CC1=CC2=NC(=O)/C(=C\c3ccc(OC(=O)c4ccco4)cc3)C(=N)N2O1,inactive: -2.65%
14,O=C(/C=C/c1ccco1)Nc1ccc(F)cc1,inactive: 25.4%
15,CC(C)NC(=O)NC(=O)COC(=O)c1ccccc1O,inactive: 26.4%
16,COc1cc(C(=O)N2CCC(C(N)=O)CC2)ccc1OCc1c(C)noc1C,inactive: -1.14%
17,O=C(CSCC(=O)NC1CCCC1)Nc1ccccc1,inactive: 2.65%
18,O=P(COCCOCCOCP(=O)(c1ccccc1)c1ccccc1)(c1ccccc1)c1ccccc1,inactive: 7.78%
19,O=S(=O)(NC1CCCCC1)c1cccc2nsnc12,inactive: -8.52%
20,CC(NC(=O)COC(=O)c1cc(=O)[nH]c2ccccc12)c1ccccc1 (configuration not stated),inactive: -3.18%
21,Cc1cccc(C(=O)NC2CC3CCCC(C2)N3C(=O)Nc2ccccc2)c1 (configuration not stated),inactive: -8.23%
22,COc1cccc(OC)c1C(=O)Nc1ccc(N2CCN(C(=O)c3cccs3)CC2)cc1,inactive: 5.51%

row,Structure (SMILES),growth rescue (activation)
1,CCc1cccc(C)c1NC(=O)C1CC=CCC1C(=O)O (configuration not stated),inactive: 2.19%
2,Cc1ccc(NC(=O)CN(C)C(=O)CSc2ccccc2F)cc1,inactive: 22.7%
3,O=c1c2sccc2n(Cc2cc(=O)n3ccccc3n2)c(=O)n1-c1cc(F)ccc1F,inactive: 3.75%
4,CC(=O)Nc1ccc(S(=O)(=O)N(C)c2ccc(OCC(=O)OCC(=O)Nc3ccc(OC(F)F)cc3)cc2)cc1,inactive: -7.58%
5,Oc1ccc(/C=N/N2CCN(C3c4ccccc4-c4ccccc43)CC2)cc1,inactive: 5.41%
6,Cc1cc(C)cc(OCC(=O)OCC(=O)NC2CC2)c1,inactive: 6.29%
7,COc1cccc(CNc2nc(NC(C)C)nc3ccsc23)c1,inactive: -0.448%
8,O=C(N/N=C/c1c[nH]c2ccccc12)c1cccs1,inactive: 19.2%
9,CC(=O)COc1ncn(-c2ccccc2)n1,inactive: 16.7%
10,Cc1cccc(Oc2nc3ccccn3c(=O)c2/C=C(\C#N)C(=O)NC2CCS(=O)(=O)C2)c1C (configuration not stated),inactive: -14.3%
11,COc1cccc(NC(=O)N2CCC(NC(=O)C3CCCCC3)CC2)c1,inactive: 0.912%
12,O=C(COc1ccccc1[N+](=O)[O-])Nc1ccc(CN2CCOCC2)cc1,inactive: -1.52%
13,Cc1ccc(C(=O)Nc2ccccc2C(=O)N2CCCC2)cc1[N+](=O)[O-],inactive: 11.7%
14,COc1ccc2[nH]c(O)c(N=O)c2c1,inactive: 0.567%
15,CC(C)CCNC(=O)CN(C(=O)CCC(=O)Nc1nccs1)c1ccc2c(c1)OCCO2,inactive: 6.16%
16,COc1cc(C)c(NC(=O)c2cccc(S(=O)(=O)N3CCCC3)c2)cc1OC,inactive: -9.5%
17,C[C@H](NC(=O)COc1ccccc1)C(=O)OCC(=O)c1cc2ccccc2o1,inactive: -3.26%
18,CSc1ccccc1NC(=O)CN(C)C(=O)CCc1c[nH]c2ccccc12,inactive: -5.58%
19,CS(=O)(=O)c1ccc(-n2nnc3ccccc32)c([N+](=O)[O-])c1,inactive: -14.9%
